# From PubChem BioAssay AID1240 (Sanford-Burnham Center for Chemical Genomics, 2008)
# Several values for one entry are separate records, joined by “and”; a condition that tells them apart may be missing. Equal values may be shown once. In all, about 50,000 compounds went through this assay and about 800 (1.6%) showed an effect of 50% or more. Some of the results follow.
# Molecular target: Bcl-2-like protein 10 (Homo sapiens) (UniProt Q9HD36)
# Assay: TR3 peptide-Bcl-B binding displacers, biochemical primary FP assay, phenotype converters (AID 1240);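 note: 0% = Bcl-B with tracer peptide and DMSO and 100% = tracer peptide lacking Bcl-B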
# Conditions: GST-Bcl-B / FITC-TR3 peptide fluorescence polarization; stronger effect = higher value; compound at 3.75 mg/L
# UniProt Q9HD36, sequence (Q9HD36 whole entry, looked up): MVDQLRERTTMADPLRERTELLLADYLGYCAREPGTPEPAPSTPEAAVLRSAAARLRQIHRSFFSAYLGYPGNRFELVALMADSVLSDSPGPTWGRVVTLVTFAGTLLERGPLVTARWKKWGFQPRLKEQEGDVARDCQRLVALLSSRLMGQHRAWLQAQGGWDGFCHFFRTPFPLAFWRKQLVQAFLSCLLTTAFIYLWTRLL
row,Compound,displacement
1,CC1=C(C(=O)Nc2ccccc2C)C(c2ccc(Cl)cc2)C2=C(CCCC2=O)N1 (configuration not stated),3.6%
2,COc1cc(Br)cc(C=Nc2ccc(C)cn2)c1O,21.6%
3,Cc1c(C(=O)OC(C)C)sc(NC(=O)c2cccc(Cl)c2)c1C#N,4.4%
4,CCCOC(=O)C(C(=O)OCCC)=C(N)C(Cl)(Cl)Cl,-7.8%
5,COc1cc(Br)cc(C=Nc2ccccc2C(=O)O)c1O,0.8%
6,CCOc1cccc(C2C(C(=O)Nc3ccccc3C)=C(C)NC3=C2C(=O)CCC3)c1 (configuration not stated),5.9%
7,CCOC(=O)c1c(NC(=O)c2ccc(OC)c(OC)c2)sc2c1CCC(CC)C2 (configuration not stated),-6.5%
8,CCCc1nc2ccccc2n1C(=O)c1ccccc1C(=O)O,-9.2%
9,O=C(/C=C/c1ccccc1)NC(=S)Nc1ccc2ccccc2c1,-0.8%
10,CC(=O)Nc1ccc(NC(=O)CN2CCCCC2)cc1,-1%
11,Cc1ccc(-c2nnc3s/c(=C\c4ccccc4Cl)c(=O)n23)cc1,30.3%
12,COc1cccc(OCC(=O)NCc2ccncc2)c1,14.1%
13,COc1cc(Br)c(/C=C2\C(=O)N(c3cccc(C(=O)O)c3)N=C2C)cc1OC,0.5%
14,Cn1c(=O)c([N+](=O)[O-])c(-n2ccnc2)c2ccccc21,-4.2%
15,COC(=O)c1cccc(N2CCCC2=O)c1,-8.6%
16,Cc1n(CCCCS(=O)(=O)[O-])c2cc(Cl)c(Cl)cc2[n+]1C,19.4%
17,Cc1ccc(C)c(OCCCCCCn2ccnc2)c1,7.9%
18,COc1ccc(Br)cc1/C=C\C(=O)Nc1cc(C(F)(F)F)ccc1Cl,1.8%
19,CC1=C(C(=O)OCC2CCCO2)C(c2ccc(Cl)c(Cl)c2)NC(=O)N1 (configuration not stated),-0.4%
20,Cc1ccccc1C(=O)NCC1CCCO1 (configuration not stated),0.7%
21,COc1ccccc1NC(=O)c1c(NC(=O)c2ccco2)sc2c1CCCC2,6.4%
22,CCOc1ccc(N(CC(=O)Nc2cccc3cccnc23)S(=O)(=O)c2ccccc2)cc1,-39.5%
23,CCOC(=O)C1=C(C)N=c2s/c(=C\c3cccs3)c(=O)n2C1c1cccc(OC)c1 (configuration not stated),12.9%
24,Cc1cccc(NC(=O)c2ccccc2C(F)(F)F)c1C,16.5%

row,Compound,displacement
1,COc1ccc(OC)c(NC(=O)c2ccc(C(=O)O)cc2C(=O)O)c1,13.1%
2,O=C(Nc1cccc2nsnc12)c1ccco1,4%
3,CCOC(=O)c1c(NC(=O)c2c(-c3ccccc3Cl)noc2C)sc2c1CCCC2,-5.8%
4,CC12CC3CC(C)(C1)CC(CNC(=O)COc1ccccc1)(C3)C2,7.8%
5,CC(=O)n1cc(Nc2ccccc2C(=O)O)c2ccccc21,-3%
6,Cc1cc(Cl)cc(C)c1OCCCCCN1CCOCC1,3.3%
7,COc1ccc(C2CC(C(F)(F)F)n3nc(C(=O)N4CCN(C(=O)c5ccccc5)CC4)c(Cl)c3N2)cc1OC (configuration not stated),11%
8,CC1=NN(C(=O)c2cccc(Br)c2)C(O)(C(F)(F)F)C1 (configuration not stated),4.2%
9,COc1ccc2nc(NC(=O)c3ccc(C(C)(C)C)cc3)sc2c1,-1.5%
10,COCCOC(=O)c1ccc(NC(=O)COc2ccccc2)cc1,42%
11,O=C1NCC(c2ccccc2)C1C(=O)N/N=C\c1cc(Cl)ccc1O (configuration not stated),-8.2%
12,O=C(CSc1nc2ccccc2s1)NCc1ccco1,-16.4%
13,CCOC(=O)c1ccc(NC(=O)c2ccc([N+](=O)[O-])s2)cc1,-4.6%
14,O=C(Nc1cc([N+](=O)[O-])ccc1C(=O)N1CCC(Cc2ccccc2)CC1)c1ccccc1,-4.2%
15,CCOC(=O)N1CCN(C2CC(=O)N(c3cccc(Cl)c3)C2=O)CC1 (configuration not stated),0.4%
16,CCOC(=O)C(CCCCOc1ccc([N+](=O)[O-])cc1)C(=O)OCC,6.3%
17,Cc1cc(NCCCCO)n2c(nc3ccccc32)c1C#N,25.9%
18,COc1ccccc1NC(=O)c1ccc2ccccc2n1,-2.3%
19,CCOC(=O)c1c(NC(=O)c2ccc([N+](=O)[O-])cc2Cl)sc2c1CCC2,-3.5%
20,COc1ccccc1N1C(=O)c2cccc3c(N(C)C)ccc(c23)C1=O,42.1%
21,CCOC(=O)c1[nH]cnc1C(=O)N1CCOCC1,-1.4% and 9.1%
22,O=C(Nc1c(O)c2ccccc2[nH]c1=O)c1ccco1,-6.5%
23,CC(C)OC(=O)C1C(=O)CC(C)(O)C(C(=O)OC(C)C)C1c1cccnc1 (configuration not stated),6%
24,CC(C)CC(=O)N1CCN(Cc2cccc(Cl)c2)CC1,-17.9%

row,Compound,displacement
1,CC1=CCC(CN(CCCN(C)C)CC2CC=C(C)CC2)CC1 (configuration not stated),-4.9%
2,COc1ccc(C(=O)NN/C(C)=C\C(=O)c2ccccc2)cc1,-5.9%
3,O=S(=O)(c1ccc2c(c1)C(=NO)c1cc(S(=O)(=O)N3CCCC3)ccc1-2)N1CCCC1,14.7%
4,COc1ccc(-c2cc(-c3ccc(Br)cc3)nc(N)c2C#N)cc1,70.6%
5,O=C(c1ccccc1)c1ccc(C(=O)N2CCOCC2)cc1,-8.7%
6,CCONC(=Nc1ccccc1OC)c1nonc1N,-7.4%
7,COc1cc([N+](=O)[O-])cc(/C=N/NC(=O)COc2c(Br)cc(Br)cc2Br)c1O,9.4%
8,O=C(/C=C/c1ccc([N+](=O)[O-])cc1)Nc1ccccc1C(=O)Nc1cccc(C(=O)O)c1,1.4%
9,O=C(c1ccccc1O)N1CCCc2ccccc21,-3.1%
10,Cc1c(Cl)cccc1-c1ccc(/C=N/N=C2\NC(=O)CS2)o1,133%
11,CC(=O)CCc1oc2ccc(Cl)cc2c1-c1ccc(C)o1,7%
12,O=C(Nc1ccccc1Cl)N1CCN(c2ccc(F)cc2)CC1,-0.4%
13,Oc1ccc(Nc2nc(-c3cccs3)cs2)cc1,5.5%
14,Cn1c(/C=N/c2nc3ccccc3n2C)nc2ccccc21,3.9%
15,CSc1ccc(S(=O)(=O)N(CC(=O)Nc2cc(C)ccc2C)c2ccc(C)cc2)cc1,3.7%
16,COc1cc(NC(=O)c2ccccc2F)cc(OC)c1,-16.2%
17,CCCOC(=O)c1cccc(NC(=O)c2cccnc2)c1,-6.6%
18,CC(=O)Nc1ccccc1NC(=O)c1cccc(F)c1,-13%
19,Oc1ccc(Br)cc1CN1CCN(Cc2c[nH]c3ccccc23)CC1,-2.7%
20,CCOC(=O)c1c(NC(=O)c2cncc(Br)c2)sc(C)c1C,15.2%
21,CCOC(=O)c1c(N)sc2c1CCN(Cc1ccccc1)C2,-2.2%
22,COc1ccc(NC(=O)C(=O)/C=C(/O)c2ccccc2)cc1,4.9%
23,COc1ccc(-c2cc(C(=O)Nc3ccccn3)c3ccccc3n2)cc1,4.7%
24,Cc1c(C#N)c2nc3ccccc3n2c(=O)/c1=C/c1sc2ccccc2c1O,1.1%
